# Measured values as given in PubChem BioAssay (NCATS).
# Several values for one entry are separate records, joined by “and”; a condition that tells them apart may be missing. Equal entries are not always repeated. The inconclusive results got no clear call from the source; some entries with a clear call stand among them for comparison. A potency beside an inconclusive call is a rough fit, not a confirmed value. Activity calls are given as the source filed them. Calls come from the whole dose curve; as a rule, active = well fitted curve in the direction sought with a large enough effect; inconclusive = small, poorly fitted or top-dose-only effect, or another doubt; inactive = no such curve, though single readings can be large; an effect the other way counts as inactive or inconclusive.
# Legend:
# [1] = qHTS of pediatric cancer cell lines to identify multiple opportunities for drug repurposing: Primary screen for SK-N-MC cells (AID 1347093); conditions: SK-N-MC viability, CellTiter-Glo luminescence, 48 h; activity change, negative = cytotoxic: at 46 µM (top of the series)
# How it was run: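 Metabolically active cells were quantified by ATP-dependent luminescence (CellTiter-Glo, 15 min at room temperature) following 48 h treatment. Cells had been plated at 500-1,000 per well and settled for 5 h beforehand.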
# [2] = qHTS of pediatric cancer cell lines to identify multiple opportunities for drug repurposing: Primary screen for BT-37 cells (AID 1347094)
# How it was run: (§1)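 Primary screen of approved and investigational compounds on cells in growth media at 37 degrees C, 5% CO2. MIPE set at 11-point and NPC set at 8-point dilutions; viability scored by ATP-based luminescence at 48 hours.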
# [3] = qHTS of pediatric cancer cell lines to identify multiple opportunities for drug repurposing: Primary screen for SK-N-SH cells (AID 1347098); note: nearly all actives have a fitted effect of over 65% in size;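 for activity change, negative = cytotoxic: DMSO served as neutral control and bortezomib at 2.3 µM as positive control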
# How it was run: (§2)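 Cells (500-1,000/well) rested 5 h, then received compounds for 48 h; metabolically active cells were measured by CellTiter-Glo luminescence. Final concentrations spanned up to 46 µM (MIPE, 11-point) or 0.59 nM-46 µM (NPC, 8-point) in primary screens, 11-point in follow-ups.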
# [4] = qHTS of pediatric cancer cell lines to identify multiple opportunities for drug repurposing: Primary screen for NB1643 cells (AID 1347099); note: nearly all actives have a fitted effect of over 50% in size
# How it was run: as §1
# [5] = qHTS of pediatric cancer cell lines to identify multiple opportunities for drug repurposing: Primary screen for LAN-5 cells (AID 1347100); conditions: LAN-5 neuroblastoma viability, CellTiter-Glo luminescence, 48 h; activity change, negative = cytotoxic: at 46 µM (top of the series)
# How it was run: (§3)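 Cells (500-1,000/well) in growth media were settled 5 h at 37 degrees C, then given compounds for 48 h. Viability was read as CellTiter-Glo luminescence. Primary runs used MIPE at 11 points (0.78 nM-46 µM) and NPC at 8 points (0.59 nM-46 µM); follow-ups used 11 points.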
# [6] = qHTS of pediatric cancer cell lines to identify multiple opportunities for drug repurposing: Primary screen for BT-12 cells (AID 1347101); note: nearly all actives have a fitted effect of over 25% in size
# How it was run: as §2
# [7] = qHTS of pediatric cancer cell lines to identify multiple opportunities for drug repurposing: Primary screen for NB-EBc1 cells (AID 1347095)
# How it was run: as §1
# [8] = qHTS of pediatric cancer cell lines to identify multiple opportunities for drug repurposing: Primary screen for U-2 OS cells (AID 1347096); note: nearly all actives have a fitted effect of over 50% in size
# How it was run: as §3
# [9] = qHTS of pediatric cancer cell lines to identify multiple opportunities for drug repurposing: Primary screen for Saos-2 cells (AID 1347097); conditions: Saos-2 viability, CellTiter-Glo ATP luminescence, 48 h; activity change, negative = cytotoxic: at 46 µM (top of the series); note: nearly all actives have a fitted effect of over 40% in size
# How it was run: as §1
# Potency is the fitted concentration of half-maximal effect; tags give direction and shape of the fitted curve.
structure (smiles),measurement,setting,value
O=c1[nH]cc(F)c(=O)[nH]1,Potency,[1],"inconclusive: 33.5 µM [cytotoxic, single point] and inconclusive: 18.7 µM [cytotoxic, partial curve, poor fit]"
same,Potency,[2],"inconclusive: 15.5 µM [cytotoxic, partial curve, poor fit] and inconclusive: 12.2 µM [cytotoxic, partial curve]"
same,Potency,[3],"inconclusive: 43.3 µM [cytotoxic, single point] and inconclusive: 17.1 µM [cytotoxic, partial curve]"
same,Potency,[4],"inconclusive: 13.3 µM [cytotoxic, partial curve] and active: 5.26 µM"
same,Potency,[5],"inconclusive: 29.9 µM [cytotoxic, single point]"
same,Potency,[6],"inconclusive: 15.5 µM [cytotoxic, partial curve] and inconclusive: 4.32 µM [cytotoxic, full curve]"
O=C(O)c1c(O)c(-c2ccccc2)nc2ccccc12,Potency,[1],"inconclusive: 29.9 µM [cytotoxic, single point]"
same,Potency,[7],"inconclusive: 33.5 µM [cytotoxic, single point]"
same,Potency,[6],inactive
Nc1cc(C(F)(F)F)ccc1S,Potency,[1],"inconclusive: 29.9 µM [cytotoxic, single point]"
same,Potency,[8],"inconclusive: 26.6 µM [cytotoxic, single point]"
same,Potency,[9],"inconclusive: 15 µM [cytotoxic, single point]"
same,Potency,[3],"inconclusive: 38.6 µM [cytotoxic, single point]"
same,Potency,[4],"inconclusive: 29.9 µM [cytotoxic, single point]"
same,Potency,[6],"inconclusive: 30.9 µM [cytotoxic, single point]"
COc1cc2nc(N3CCCN(C)CC3)nc(NC3CCN(Cc4ccccc4)CC3)c2cc1OC,Potency,[1],active: 6.62 µM
same,Potency,[8],"inconclusive: 23.5 µM [cytotoxic, single point]"
same,Potency,[9],active: 7.43 µM
CC(C)OC(=O)CCCC=CC[C@@H]1[C@H](C=C[C@@H](O)COc2cccc(C(F)(F)F)c2)[C@H](O)C[C@@H]1O,Potency,[1],"inconclusive: 37.2 µM [cytotoxic, single point]"
same,Potency,[2],"inconclusive: 24.3 µM [cytotoxic, partial curve]"
same,Potency,[3],"inconclusive: 24.1 µM [cytotoxic, partial curve]"
C=CC(=O)Nc1cc2c(Nc3ccc(F)c(Cl)c3)ncnc2cc1C#CC(C)(C)N1CCN(C)CC1,Potency,[1],"inconclusive: 1.66 µM [cytotoxic, full curve, poor fit]"
same,Potency,[8],active: 7.43 µM
O=C1CCc2ccc(OCCCCN3CCN(c4cccc(Cl)c4Cl)CC3)cc2N1,Potency,[1],"inconclusive: 37.2 µM [cytotoxic, single point]"
same,Potency,[7],"inconclusive: 21.1 µM [cytotoxic, single point]"
same,Potency,[9],"inconclusive: 21.1 µM [cytotoxic, partial curve] and inconclusive: 23.5 µM [cytotoxic, partial curve]"
same,Potency,[3],inactive
same,Potency,[5],"inconclusive: 29.9 µM [cytotoxic, single point] and inconclusive: 18.7 µM [cytotoxic, partial curve]"
same,Potency,[6],"inconclusive: 4.37 µM [cytotoxic, full curve] and inconclusive: 34.3 µM [cytotoxic, single point]"
NC(=O)C(c1ccccc1)(c1ccccc1)[C@@H]1CCN(CCc2ccc3c(c2)CCO3)C1,Potency,[1],inactive
same,Potency,[7],"inconclusive: 29.9 µM [cytotoxic, single point]"
same,Potency,[9],"inconclusive: 13.3 µM [cytotoxic, partial curve]"
same,Potency,[3],inactive
CCN(CC)CCNC(=O)c1cc(Cl)c(N)cc1OC,Potency,[1],"inconclusive: 0.0038 µM [cytotoxic, full curve, poor fit]"
same,Potency,[7],inactive
C=C1C(=CC=C2CCC[C@]3(C)[C@@H]([C@H](C)CCCC(C)(C)O)CC[C@@H]23)C[C@@H](O)C[C@@H]1O,Potency,[1],active: 1.48 µM
same,Potency,[7],active: 2.96 µM
same,Potency,[9],active: 14.8 µM
same,Potency,[5],active: 1.66 µM
O=C(O)c1cccnc1Nc1cccc(C(F)(F)F)c1,Potency,[1],"inconclusive: 37.2 µM [cytotoxic, single point] and active: 26.6 µM"
same,Potency,[7],"inconclusive: 26.6 µM [cytotoxic, partial curve, poor fit]"
CS(=O)c1ccc(-c2nc(-c3ccc(F)cc3)c(-c3ccncc3)[nH]2)cc1 (stereo not given),Potency,[1],active: 8.55 µM
same,Potency,[7],"inconclusive: 67.9 µM [cytotoxic, single point]"
same,Potency,[3],"inconclusive: 49.4 µM [cytotoxic, partial curve]"
same,Potency,[6],active: 44.4 µM
O=c1c(-c2ccc(O)cc2)coc2cc(O)ccc12,Potency,[1],"inconclusive: 20.9 µM [cytotoxic, partial curve]"
same,Potency,[2],inactive
same,Potency,[3],"inconclusive: 34.1 µM [cytotoxic, single point]"
CC(C)(C)c1nnc(NS(=O)(=O)c2ccc(N)cc2)s1,Potency,[1],inactive
same,Potency,[9],"inconclusive: 21.1 µM [cytotoxic, single point]"
same,Potency,[3],inactive
same,Potency,[6],inactive
CS(=O)(=O)N(Cc1ccco1)CC(O)Cn1c2ccccc2c2ccccc21 (stereo not given),Potency,[1],"inconclusive: 37.2 µM [cytotoxic, single point]"
same,Potency,[9],"inconclusive: 10.5 µM [cytotoxic, partial curve]"
same,Potency,[4],"inconclusive: 37.2 µM [cytotoxic, single point]"
same,Potency,[6],"inconclusive: 27.3 µM [cytotoxic, single point]"
COc1ncc(-c2ccc3nccc(-c4ccnnc4)c3c2)cc1NS(=O)(=O)c1ccc(F)cc1F,Potency,[1],active: 0.001 µM
same,Potency,[8],active: 7.43 µM
same,Potency,[9],"inconclusive: 0.0209 µM [cytotoxic, full curve]"
same,Potency,[5],active: 0.105 µM
same,Potency,[6],"inconclusive: 0.0097 µM [cytotoxic, full curve]"
Cc1[nH]c(C=C2C(=O)Nc3ccccc32)c(C)c1CCC(=O)O,Potency,[1],active: 0.59 µM
same,Potency,[8],"inconclusive: 37.2 µM [cytotoxic, single point]"
same,Potency,[3],active: 0.541 µM
same,Potency,[5],active: 0.132 µM
CC(=O)Oc1cccc2c1C(=O)c1c(OC(C)=O)cc(C(=O)O)cc1C2=O,Potency,[1],"inconclusive: 33.5 µM [cytotoxic, single point]"
same,Potency,[9],"inconclusive: 29.9 µM [cytotoxic, single point]"
same,Potency,[5],"inconclusive: 23.7 µM [cytotoxic, single point]"
CC(C)(O)[C@H]1CC[C@@](C)([C@H]2[C@@H](O)C[C@@]3(C)[C@@H]4C[C@H](O[C@@H]5O[C@H](CO)[C@@H](O)[C@H](O)[C@@H]5O)[C@H]5C(C)(C)[C@@H](O[C@@H]6OC[C@@H](O)[C@H](O)[C@@H]6O)CC[C@@]56C[C@@]46CC[C@]23C)O1,Potency,[1],inactive
same,Potency,[9],inactive
CCCCCCCCCCCCOCCOCCOCCOCCOCCOCCOCCOCCOCCO,Potency,[1],"inconclusive: 33.5 µM [cytotoxic, single point]"
same,Potency,[9],"inconclusive: 26.6 µM [cytotoxic, single point]"
same,Potency,[5],"inconclusive: 23.7 µM [cytotoxic, partial curve]"
same,Potency,[6],active: 6.92 µM
COc1cc2nc(-c3ccc(N4CCN(C)CC4)cc3)nc(NCCN3CCOCC3)c2cc1OC,Potency,[1],active: 0.0372 µM
same,Potency,[8],active: 0.935 µM
same,Potency,[3],active: 4.82 µM
same,Potency,[5],active: 0.0187 µM
Cc1cccc(C#Cc2ccccc2)n1,Potency,[1],"inconclusive: 26.4 µM [cytotoxic, single point]"
same,Potency,[9],"inconclusive: 11.8 µM [cytotoxic, partial curve]"
same,Potency,[3],"inconclusive: 24.1 µM [cytotoxic, partial curve]"
same,Potency,[4],"inconclusive: 20.9 µM [cytotoxic, partial curve, poor fit]"
same,Potency,[5],inactive
Oc1ccc(/C=C/c2cc(O)cc(O)c2)cc1,Potency,[1],active: 15 µM
same,Potency,[9],inactive
same,Potency,[3],"inconclusive: 27.3 µM [cytotoxic, single point]"
same,Potency,[5],inactive
Nc1ccc(O)c([N+](=O)[O-])c1,Potency,[1],"inconclusive: 13.7 µM [cytotoxic, partial curve, poor fit]"
same,Potency,[8],inactive
same,Potency,[9],"inconclusive: 68.6 µM [cytotoxic, single point]"
same,Potency,[3],"inconclusive: 88.6 µM [cytotoxic, single point]"
same,Potency,[6],"inconclusive: 35.5 µM [cytotoxic, partial curve]"
CN1CCN(c2cc3c(nn2)Oc2ccccc2N3C)CC1,Potency,[1],inactive
same,Potency,[9],inactive
same,Potency,[3],inactive
same,Potency,[4],inactive
Cc1ccc2c(n1)Oc1ccc(C(C)C(=O)OCC(=O)N(C)C)cc1C2 (stereo not given),Potency,[1],inactive
same,Potency,[9],"inconclusive: 23.7 µM [cytotoxic, single point]"
same,Potency,[3],inactive
same,Potency,[6],inactive
CCCCC(CC)CN1CN(CC(CC)CCCC)CC(C)(N)C1 (stereo not given),Potency,[1],"inconclusive: 33.5 µM [cytotoxic, single point]"
same,Potency,[9],"inconclusive: 33.5 µM [cytotoxic, partial curve, poor fit]"
same,Potency,[4],inactive
same,Potency,[6],"inconclusive: 24.6 µM [cytotoxic, partial curve, poor fit]"
CO[C@@]1(NC(=O)Cc2cccs2)C(=O)N2C(C(=O)O)=C(COC(N)=O)CS[C@@H]21,Potency,[1],inactive
same,Potency,[9],inactive
CC1(C)OC2=C(C(=O)c3ccccc3C2=O)[C@H](NCc2ccccc2)[C@H]1O,Potency,[1],active: 1.48 µM
same,Potency,[8],active: 9.35 µM
same,Potency,[3],active: 4.82 µM
same,Potency,[6],active: 13.7 µM
C=C[C@H]1CN2CC[C@H]1C[C@H]2[C@H](O)c1ccnc2ccc(OC)cc12,Potency,[1],inactive
same,Potency,[3],"inconclusive: 19.4 µM [cytotoxic, partial curve, poor fit]"
CC1(C)S[C@@H]2[C@H](NC(=O)Cc3ccccc3)C(=O)N2[C@H]1C(=O)O (tested in a mixture with another compound),Potency,[1],inactive
same,Potency,[9],inactive
same,Potency,[6],inactive
